# According to PubChem BioAssay AID1645882 (National Center for Advancing Translational Sciences (NCATS), 2021):
# About 120 (0.75%) of roughly 16,000 compounds were called active. Inconclusive results (about 4%) are left out. Calls come from the whole dose curve; as a rule, active = well fitted inhibition curve with a large enough effect; inconclusive = small, poorly fitted or top-dose-only effect; inactive = no such curve, though single readings can be large or run the other way. The list shows a part of the results.
# Biological target: Rap guanine nucleotide exchange factor 3 (Homo sapiens) (UniProt O95398)
# Assay: Validation qHTS for antagonist of cAMP-regulated guanine nucleotide exchange factor 3 (EPAC1);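 note: plate controls were DMSO for no effect and ATA control for full effect; nearly all actives have a fitted effect of over 75% in size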
# Settings: EPAC1 Rap1B-BODIPY-GDP exchange, fluorescence; series mostly up to 150 µM; activity change, negative = inhibition: at the top concentration
# Method in brief: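 Nucleotide exchange followed as fluorescence loss when BODIPY-GDP leaves Rap1B (480 nm excitation, 540 nm emission), read at 5 min intervals over 30 min. Reaction: 100 nM EPAC1, 250 nM RAP1B-BODIPY-GDP, 50 uM GDP; ATA and DMSO define normalization.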
# UniProt O95398, sequence (O95398 whole entry, looked up): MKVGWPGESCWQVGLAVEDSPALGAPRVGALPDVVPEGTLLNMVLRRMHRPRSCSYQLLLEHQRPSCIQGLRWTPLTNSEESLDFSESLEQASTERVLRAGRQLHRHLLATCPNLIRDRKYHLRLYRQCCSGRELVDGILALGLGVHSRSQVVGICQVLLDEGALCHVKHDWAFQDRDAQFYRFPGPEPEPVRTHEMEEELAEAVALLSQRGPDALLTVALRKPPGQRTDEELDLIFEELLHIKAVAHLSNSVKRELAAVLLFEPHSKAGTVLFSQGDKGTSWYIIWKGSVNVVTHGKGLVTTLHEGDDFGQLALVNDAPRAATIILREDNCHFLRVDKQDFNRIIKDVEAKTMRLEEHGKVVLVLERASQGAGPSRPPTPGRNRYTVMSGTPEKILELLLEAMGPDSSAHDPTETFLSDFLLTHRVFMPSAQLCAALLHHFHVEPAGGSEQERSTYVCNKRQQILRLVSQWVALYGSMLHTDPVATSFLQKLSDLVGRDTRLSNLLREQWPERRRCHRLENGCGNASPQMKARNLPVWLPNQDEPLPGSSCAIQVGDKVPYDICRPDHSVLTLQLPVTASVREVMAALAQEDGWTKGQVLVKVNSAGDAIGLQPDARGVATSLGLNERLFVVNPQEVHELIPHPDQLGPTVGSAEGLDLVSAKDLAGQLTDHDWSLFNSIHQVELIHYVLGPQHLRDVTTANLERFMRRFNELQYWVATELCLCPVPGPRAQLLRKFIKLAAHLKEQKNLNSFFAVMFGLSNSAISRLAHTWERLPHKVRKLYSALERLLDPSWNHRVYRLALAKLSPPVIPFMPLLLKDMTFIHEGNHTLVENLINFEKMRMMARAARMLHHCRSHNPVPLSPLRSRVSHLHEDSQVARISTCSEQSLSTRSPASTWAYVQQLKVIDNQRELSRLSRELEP
row,Compound,"activity change, negative = inhibition"
1,CCCCCCCN1CCC(=O)N([C@H](CO)Cc2ccccc2)CC1,inactive: -4.35%
2,CCOc1ccc(N=C(C)Nc2ccc(OCC)cc2)cc1,inactive: 10.7%
3,FC(F)(F)C(F)(F)C(F)(F)C(F)(F)C(F)(F)C(F)(F)C(F)(F)C(F)(F)Br,inactive: 13.9%
4,CN1CCCC1c1cccnc1 (stereo not given),inactive: 10.4%
5,O=C(c1cnccn1)N1CCC2(CCN(Cc3cc(C(F)(F)F)cc(C(F)(F)F)c3)CC2)CC1,inactive: 0.971%
6,CN1CCCC(n2nc(Cc3ccc(Cl)cc3)c3ccccc3c2=O)CC1 (stereo not given),inactive: 23.5%
7,CCCCCCCCN1[C@@H](CC(=O)OCC)c2ccc(C(F)(F)F)cc2S1(=O)=O,inactive: -22.5%
8,Cc1ccc(C)c2c(C)ccnc12,inactive: 20.6%
9,CC(C)[C@@H](COc1ccccc1)N1CCN(Cc2ccccc2)CCC1=O,inactive: -0.103%
10,CC1=CC(=O)NS(=O)(=O)O1,inactive: 9.17%
11,Nc1ncnc2c1ncn2[C@@H]1O[C@H](COP(=O)(O)OP(=O)(O)OP(=O)(O)OP(=O)(O)OC[C@@H]2O[C@H](n3cnc4c(N)ncnc43)[C@@H](O)[C@H]2O)[C@@H](O)[C@H]1O,inactive
12,COc1ccc(-n2c(CNC(=O)c3c(-c4ccccc4)noc3C)nnc2SC)cc1,inactive: 18.5%
13,O=C(c1ccco1)N1CCC2(CC1)CCN(c1ncccn1)CC2,inactive: -6.5%
14,O=C(c1ccncc1)N1CCC[C@@]2(CCN(c3ncccn3)C2)C1,inactive: 5.91%
15,COC(=O)c1cc(CNC(=O)c2ccncc2)cc(NC(=O)c2ccccc2Cl)c1,inactive: -25.5%
16,O=c1c(CCc2ccccc2)nc2cnc(N3CCNCC3)nc2n1-c1ccccc1,inactive: 20.8%
17,CCCC(=O)Nc1ncnc2c1ncn2[C@@H]1O[C@@H]2COP(=O)(O)O[C@H]2[C@H]1OC(=O)CCC,inactive
18,COCCn1c(=O)c(-c2ccc(F)cc2)nc2cnc(Oc3cccc(Cl)c3)nc21,inactive: -10.8%
19,N#Cc1cccc(NC(=O)N2CC[C@@]3(CCCN(C(=O)c4ccncc4)C3)C2)c1,inactive: 12.7%
20,O=C(c1ccncc1)N1CCC2(CCCN(c3ccccn3)C2)CC1,inactive: 30.3%
21,COc1ccc2c(c1)-c1nc(-n3ncc(C(=O)NC(C)(C)CO)c3C3CC3)ncc1CC2,inactive: 6.07%
22,CN(C)CCC[C@@]1(c2ccc(F)cc2)OCc2cc(C#N)ccc21,inactive
23,CC(=O)N[C@@H](CCC(=O)O)C(=O)O,inactive: 0.0157%
24,COc1ccc(Oc2ncc3ncc(=O)n(Cc4ccc(F)cc4)c3n2)cc1,inactive: -2.74%
25,O=C[C@H](O)[C@@H](O)[C@@H](O)[C@H](O)CO,inactive: 28.1%

row,Compound,"activity change, negative = inhibition"
1,CC(C)C[C@H](NC(=O)[C@H](CCc1ccccc1)NC(=O)CN1CCOCC1)C(=O)N[C@@H](Cc1ccccc1)C(=O)N[C@@H](CC(C)C)C(=O)[C@@]1(C)CO1,inactive: 28.5%
2,COc1ccc(-n2c(=O)c(-c3cccs3)nc3cnc(N(C)C)nc32)cc1,inactive: 19.2%
3,O=c1ccn([C@@H]2O[C@H](COP(=O)(O)O)[C@@H](O)[C@H]2O)c(=O)[nH]1,inactive: 31%
4,CCNc1ncc2nc(CCc3ccccc3)c(=O)n(C)c2n1,inactive: 10.4%
5,C=C1c2c(Cl)ccc(O)c2C(O)=C2C(=O)[C@]3(O)C(O)=C(C(N)=O)C(=O)[C@@H](N(C)C)[C@@H]3[C@@H](O)C12 (stereo not given in full),inactive: 23.2% [at 39.6 µM]
6,O=C(O[C@H]1CN2CCC1CC2)N1CCc2ccccc2[C@@H]1c1ccccc1,inactive: 14.4%
7,NC(=O)N/N=C/c1ccc([N+](=O)[O-])o1,inactive
8,C=C1c2cccc(O)c2C(O)=C2C(=O)[C@]3(O)C(O)=C(C(N)=O)C(=O)C(N(C)C)C3C(O)C12 (stereo not given in full),inactive: 9.9%
9,Cc1c(C(=O)NCCCN2CCCC2=O)cnn1-c1ncc2c(n1)-c1ccccc1CC2,inactive: 4.56%
10,CCNc1ncc2nc(-c3ccc(OC)cc3)c(=O)n(-c3ccc(OC)cc3)c2n1,inactive: 21.3%
11,NCC1CCC(C(=O)Oc2ccc(CCC(=O)O)cc2)CC1 (stereo not given),inactive: 10.1%
12,c1cncc(-c2cncnc2NC2CCNCC2)c1,inactive: 12.5%
13,CCC1(C2CCN(C(=O)c3csc(C(C)=O)c3)CC2)NC(=O)N(CCc2scnc2C)C1=O (stereo not given),inactive: 12.8%
14,CNc1ccnc(-c2ccccc2OC)n1,inactive: 5.01%
15,Nc1nc(-c2ccccc2)c(Br)c(=O)[nH]1,inactive: -4.32%
16,NC(N)=N/N=C\c1c(Cl)cccc1Cl,inactive: -0.786%
17,CCCCCCCN1CCC(=O)N(CCO)CC1,inactive: 4.79%
18,COc1cc(-c2cccnc2)cc2c1OCCN(C(=O)Cc1csc(C)n1)C2,inactive: 0.913%
19,CCN(CC)CCOc1ccc(/C(=C(\Cl)c2ccccc2)c2ccccc2)cc1,inactive
20,O[C@@H](c1ccccc1)C1CCN(CCc2ccccc2)CC1,inactive: 1.6%
21,CC(=O)OCOC(=O)CN(CC(=O)OCOC(C)=O)c1ccccc1OCCOc1ccccc1N(CC(=O)OCOC(C)=O)CC(=O)OCOC(C)=O,inactive: -11.7%
22,COc1ccccc1CNc1ncncc1-c1ccccc1Cl,inactive: -15%
23,O=[N+]([O-])c1ccc2nc(CO)[nH]c2c1,inactive: 6.56%
24,Cc1ccc(C(=O)c2cc(O)c(O)c([N+](=O)[O-])c2)cc1,inactive: 4.1%
25,O=Nc1c(-c2c(O)[nH]c3ccccc23)[nH]c2ccccc12,inactive

row,Compound,"activity change, negative = inhibition"
1,Cc1cnc(-n2ncc(C(=O)NCC3CCCN(C)C3)c2C)nc1-c1cccs1 (stereo not given),inactive: -8.87%
2,COc1ccc2[nH]cc(CCNC(C)=O)c2c1,inactive
3,Cc1cnc(CNc2ccnc(-c3ccc(C(=O)N(C)C)cc3)n2)cn1,inactive: 12.8%
4,C=C(C)C1Cc2c(ccc(C(=O)O)c2O)O1 (stereo not given),inactive: 17.7%
5,CC(=O)OC1CCC23CC1(C)CCC2C(C)(C)CC3OC(C)=O (stereo not given),inactive: 3.64%
6,COc1ccc(OC)c2c(C)ccnc12,inactive: 13.7%
7,O=C(NCC1(N2CCOCC2)CCCCC1)c1cnn(-c2nccc(-c3ccco3)n2)c1C1CC1,inactive: -4.77%
8,O=c1c(CCc2ccccc2)nc2cnc(N3CCOCC3)nc2n1CCc1ccccc1,inactive: 9.74%
9,CC(C)(C)C1CCC(=O)N(CCSc2ccccc2)CC1 (stereo not given),inactive: -15.1%
10,Cc1nc2cnc(OCc3ccccc3)nc2n(C)c1=O,inactive: 7.58%
11,CC1CC2C3CCC4=CC(=O)C=C[C@]4(C)[C@@]3(Cl)C(O)C[C@]2(C)C1(OC(=O)c1ccco1)C(=O)CCl (stereo not given in full),inactive: 4.58%
12,CCCCCc1ccc(-c2cn(CCc3c[nH]c4ccccc34)nn2)cc1,inactive: -7.62%
13,COc1ccccc1-c1nc(NCCNC(C)=O)c2ccccc2n1,inactive: 10.5%
14,CC1(C)CC[C@]2(C(=O)O)CC[C@@]3(C)C(=CCC4[C@@]5(C)CCC(O)[C@@](C)(CO)C5CC[C@@]43C)C2C1 (stereo not given in full),inactive: 9.35%
15,CCOC(=O)[C@H](N)/C=C(\C)CP(=O)(O)O,inactive: 12.4%
16,CN(C)c1ncnc2ccc(-c3cccc(C#N)c3)cc12,inactive: -5.09%
17,CO[C@H]1[C@H](NC(=O)c2ccsc2)c2ccccc2C12CCN(Cc1cc(Cl)ccc1O)CC2,inactive: 7.57%
18,CC=CC1=C(C(=O)O)N2C(=O)[C@H](NC(=O)[C@H](N)c3ccc(O)cc3)[C@@H]2SC1,inactive: 12.6%
19,CS(=O)(=O)N1CCC2(CCCN(C(=O)Nc3ccccc3)C2)CC1,inactive: 15.9%
20,COCCC(=O)NCC1Cc2cc(Cl)cc(-c3ccc4[nH]ccc4c3)c2O1 (stereo not given),inactive: 9.37%
21,CC(=O)OC1CC[C@]2(C)C(CC(OC(C)=O)[C@]3(C)C2CC[C@@]2(C)C(c4ccoc4)OC(=O)C4O[C@]432)C1(C)C (stereo not given in full),inactive: -21.9%
22,Cn1cccc1C(=O)N1CCC2(CC1)CCN(C(c1ccccc1)c1ccccc1)CC2,inactive: -14.5%
23,COc1ccc(C(=O)NCc2cccnc2)cc1C(=O)NCc1cccnc1,inactive: 2.17% [at 75.8 µM]
24,COCc1c(C(C)C)nc(C(C)C)c(/C=C/[C@@H](O)C[C@@H](O)CC(=O)O)c1-c1ccc(F)cc1,inactive: 1.01%
25,COc1ccc(-c2nc3cc(C)ccc3cc2CN(C(=O)c2csc(C)n2)C2CC2)cc1OC,inactive: -6.54%

row,Compound,"activity change, negative = inhibition"
1,CNc1ncncc1-c1ccccc1C,inactive: 1.63%
2,OC(CCN1CCCCC1)(c1ccccc1)C1CC2C=CC1C2 (stereo not given),inactive
3,COCCn1c(=O)c(-c2ccccc2)nc2cnc(Oc3ccccc3)nc21,inactive: -20%
4,COc1cc(=O)n2c(c1C(=O)NC(C)c1ccco1)CCN(Cc1cc(C)ccc1C)CC2 (stereo not given),inactive: 11.8%
5,C[C@@]12C(=O)OC(=O)[C@]1(C)C1CCC2O1,inactive: -14.7% [at 75.8 µM]
6,Cc1ncc([N+](=O)[O-])n1CCO,inactive: 20.4%
7,CSCC[C@H](NC(=O)[C@H](Cc1ccccc1)NC[C@@H](NC[C@@H](N)CS)C(C)C)C(=O)O,inactive: 10.5%
8,CCc1nc2cc(C(=O)N3CCC[C@H]3CO)cc(NC(=O)c3ccccc3OC)c2n1C,inactive: 8.8%
9,CCN(CC)CC#CCOC(=O)C(O)(c1ccccc1)C1CCCCC1 (stereo not given),inactive
10,COc1ccccc1CNc1nc(-c2ccccc2OC)nc2ccccc12,inactive: -8.67%
11,CCN(CC)CCSC(=O)C(c1ccccc1)c1ccccc1,inactive
12,Cc1nc2sccn2c1CN1CCC2(CC1)CC2C(=O)Nc1ccc2c(c1)OCO2 (stereo not given),inactive: 12.8%
13,COC(=O)[C@@H]1CCCN1Cc1ccc2c(c1)CN(Cc1cccn1-c1ncccn1)CCO2,inactive: 22.8%
14,Cn1c(=O)c(-c2ccc(Cl)cc2)nc2cnc(Oc3cccc(Cl)c3)nc21,inactive: 0.506%
15,COc1ccc2ccccc2c1CN1CCc2nnc(C(NS(C)(=O)=O)C(C)C)n2CC1 (stereo not given),inactive: 11.9%
16,COc1cc(CN2CCC3(CCC(CNC(=O)c4cc(C)nn4C)O3)CC2)ccc1F (stereo not given),inactive: -9.08%
17,COc1cccc(Cn2c(=O)c(-c3ccc(F)cc3)nc3cncnc32)c1,inactive: 4.72%
18,N=C(N)c1ccccc1,inactive: -12% [at 75.8 µM]
19,Cc1ccccc1-c1ccc2ncnc(NC3CC3)c2c1,inactive: -6.7%
20,COc1ccc(CNc2ncnc3ccc(-c4ccccc4CN(C)C)cc23)c(OC)c1,inactive: -26.4%
21,CN(C)Cc1ccccc1-c1ccc2ncnc(N3CCOCC3)c2c1,inactive: 7.39%
22,CCCCCCCCCCCCCCCCCCN(CCCCCCCCCCCCCCCCCC)c1ccc(/C=C/c2ccnc3ccccc23)cc1,inactive: 20.8%
23,CC(=O)NCCNc1nc(-c2ccccc2CN(C)C)nc2ccccc12,inactive: 8.44%
24,CCC(C)C(=O)OC1C2CC3=C4CC(=O)OC(c5ccoc5)[C@]4(C)CCC3[C@@](C)(C2=O)C(CC(=O)OC)C1(C)C (stereo not given in full),inactive: -5.68%
25,O=C(NCCNCC(O)COc1ccc(O)cc1)N1CCOCC1 (stereo not given),inactive: 13%
